# Test results from article PMC6919601, “Identification of Plasmodium dipeptidyl aminopeptidase allosteric inhibitors by high throughput screening” (PLoS ONE, 2019).
# Screen size: about 110,000 compounds; about 230 (0.21%) showed an effect of 50% or more. The list shows a part of the results.
# Molecular target: DPAP1 (Plasmodium falciparum, UniProt Q8IIJ9)
# Test: primary screen, percent inhibition; read by cleavage of a fluorogenic dipeptide substrate; higher = more effect of the substance
# Set-up: species or system P. falciparum D10 trophozoite lysates; single well
# 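Further: 30 min substrate incubation versus DMSO and 10 µM JCP410 controls.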
# Chain of DPAP1 (Q8IIJ9 whole entry, looked up): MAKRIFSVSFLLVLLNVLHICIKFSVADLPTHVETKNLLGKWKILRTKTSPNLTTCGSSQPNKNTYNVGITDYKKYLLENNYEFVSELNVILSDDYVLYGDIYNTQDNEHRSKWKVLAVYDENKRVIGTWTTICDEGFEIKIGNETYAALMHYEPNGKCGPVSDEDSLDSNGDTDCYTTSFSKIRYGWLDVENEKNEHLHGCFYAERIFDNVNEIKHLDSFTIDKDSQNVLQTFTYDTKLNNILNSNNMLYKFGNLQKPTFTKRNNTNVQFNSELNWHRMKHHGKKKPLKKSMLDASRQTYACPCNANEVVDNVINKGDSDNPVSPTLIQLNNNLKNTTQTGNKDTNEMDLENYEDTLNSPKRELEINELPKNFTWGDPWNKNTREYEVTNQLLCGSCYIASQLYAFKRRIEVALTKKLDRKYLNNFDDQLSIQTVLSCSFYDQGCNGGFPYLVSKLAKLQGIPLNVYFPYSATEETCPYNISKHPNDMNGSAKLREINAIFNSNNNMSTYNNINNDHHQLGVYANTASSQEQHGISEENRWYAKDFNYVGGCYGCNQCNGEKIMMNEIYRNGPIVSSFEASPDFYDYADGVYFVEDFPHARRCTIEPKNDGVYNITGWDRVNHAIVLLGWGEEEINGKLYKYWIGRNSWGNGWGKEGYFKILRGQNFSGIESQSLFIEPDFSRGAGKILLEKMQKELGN
row,SMILES,% Inhibition @ 10 uM
1,CC(=O)Nc1ccc(N/C=C(/C#N)c2nc(-c3ccc(-c4ccccc4)cc3)cs2)cc1,1.08%
2,Cc1ccc2[nH]c(SCC(=O)Nc3cccc(C(F)(F)F)c3)nc2c1,0.5%
3,COc1ccc(CC(=O)N2CCN(c3ccc(Cl)cc3)CC2)cc1OC,1.15%
4,O=C(NCCCc1nc2ccccc2n1Cc1ccc(F)cc1)c1ccco1,2.62%
5,O=C(NCCCc1nc2ccccc2n1C/C=C/c1ccccc1)c1ccco1,3.74%
6,Cc1nc(-n2cccc2)sc1C(=O)NCc1ccccc1Cl,0.0882%
7,Cc1ccccc1OCc1nnc(-c2ccccc2Cl)o1,-4.82%
8,CC1CCCC(NC(=O)CN(C)S(=O)(=O)c2cc(Br)cnc2N)C1C (centres unmarked),3.3%
9,COc1ccc(C)c2sc(N(CCN(C)C)C(=O)CN3C(=O)c4ccccc4C3=O)nc12,6.08%
10,COC(=O)C1=C(C)NC(=O)CC1c1cccc(Br)c1 (centres unmarked),3.48%
11,Cc1ccc(CNC(=O)C(NS(=O)(=O)c2cccs2)c2ccccc2)cc1 (centres unmarked),-3.36%
12,O=c1ncn(-c2cccc(F)c2)c2ncccc12,-7.17%
13,O=C(c1ccccc1)N1CCC2(Cl)CCCCC2C1c1ccccc1 (centres unmarked),-3.53%
14,O=C(CCc1nc2cccnc2n1-c1ccccc1)NC1CCCC1,-1.08%
15,Cn1cc(C(=O)N2CCN(Cc3ccccc3)CC2)c2c3ccccc3n(C)c2c1=O,-6.26%
16,COc1cc(OC)cc(C(=O)Nc2ccc(S(=O)(=O)N3CCC(C)CC3)cc2)c1,-1.78%
17,Cc1ccc(CC(=O)N2CCCC(c3nc(O)c4nnn(Cc5cccs5)c4n3)C2)cc1 (centres unmarked),-2.92%
18,Cc1c(C(=O)N2CCOCC2)oc2c1-c1nn(CC(=O)NC(C)c3ccccc3)cc1CC2 (centres unmarked),1.17%
19,O=C(NCCCN1CCOCC1)c1cccnc1SCc1ccccc1Cl,-0.458%
20,CC1CCCCN1C(=O)c1ccc([N+](=O)[O-])cc1Cl (centres unmarked),2.46%
21,Cc1nn(C(C)C(=O)N2CC(C)CC(C)C2)c(=O)c2cc3occc3n12 (centres unmarked),-0.281%
22,CSc1ncc(Cl)c(C(=O)Nc2nnc(SC/C=C/c3ccccc3)s2)n1,5.29%
23,OCCNCc1cc(Cl)ccc1OCc1ccccc1,4.44%
24,O=C(Nc1nc2c(s1)CCCC2)c1ccc(-c2ccccc2)cc1,2.79%
25,Cc1ccccc1C(=O)N1CCN(c2nc(-c3ccccc3)cs2)CC1,2.99%

row,SMILES,% Inhibition @ 10 uM
1,Cc1ccc(Cn2nnc3c(=O)n(CC(=O)NCC4CCCO4)cnc32)cc1 (centres unmarked),-7.71%
2,Cc1ccc(OCC(O)CNC(C)(C)C)cc1C (centres unmarked),-3.94%
3,Cc1sc(C2C(C#N)=C(N)OC3=C2C(=O)CC(C)(C)C3)cc1COc1ccc(F)cc1Cl (centres unmarked),4.33%
4,CN1CCN(C(=O)c2cc3nc(-c4cccs4)cc(C(F)(F)F)n3n2)CC1,1.72%
5,CC1=C(C(=O)Nc2ccccc2)C(c2ccc(C)o2)n2c(s/c(=C/c3c(C)nn(C)c3C)c2=O)=N1 (centres unmarked),4.05%
6,CC(NC(=O)CN(C)S(=O)(=O)c1cccc2nsnc12)c1ccccc1 (centres unmarked),2%
7,COc1ccc(CCNC(=O)c2nn(C)c3c2CS(=O)(=O)c2ccccc2-3)cc1OC,5.82%
8,Cc1ccc(N(C)S(=O)(=O)c2ccc(Cl)cc2)cc1,0.345%
9,Cc1ccc(N2CCN(C(=O)NC34CC5CC(CC(C5)C3)C4)CC2C)cc1 (centres unmarked),0.35%
10,C=C(C)CNC(=S)Nc1ccc(Br)cc1,0.634%
11,CC(C)C[C@H](NC(=O)c1cccc(-c2ccc(S(N)(=O)=O)cc2)c1)C(=O)NCC#N,-8.81%
12,COCCCN1C2=C(C(=O)CC(C)(C)C2)C(c2ccccc2OC)C2=C1CC(C)(C)CC2=O,-3.41%
13,COC(=O)c1ccc(C2C3=C(O)CCCC3=NC(C)=C2C(=O)OCc2ccccc2)cc1 (centres unmarked),4.1%
14,CCCN1CCC(N2CCN(c3ccccn3)CC2)CC1,1.57%
15,O=C(CSc1ccc(-c2cccs2)nn1)NCc1ccc2c(c1)OCO2,3.02%
16,COC(=O)c1cc(S(=O)(=O)N2CCCN(Cc3ccc(F)cc3)C2)cn1C,2.42%
17,CCn1cc(C(=O)Nc2ccc(CC#N)cc2)c(C)n1,1.93%
18,COc1ccc(C(=O)NC(C)c2cc3c(cc2Br)OCCO3)cc1 (centres unmarked),5.24%
19,O=C(CSc1nc2ccccc2s1)Nc1cccn2cc(-c3ccccc3)nc12,0.815%
20,Cc1cc(C)cc(NC(=O)CN(c2ccc(F)cc2)S(=O)(=O)c2ccccc2)c1,-6.48%
21,O=C(Nc1nncs1)C1COc2ccccc2O1 (centres unmarked),0.9%
22,CC1CCc2nc(NC(=O)CN3CCN(Cc4ccccc4)CC3)sc2C1 (centres unmarked),-3.43%
23,CC(C)(C)c1cc(C(=O)Nc2cccc(N)c2)cc(C(C)(C)C)c1,-1.45%
24,CC1=C(C(=O)OCCc2ccccc2)C(c2ccccn2)C2=C(O)CCCC2=N1 (centres unmarked),1.26%
25,COc1ccc(NC(=O)N2CCCCC2)cc1,-7.98%

row,SMILES,% Inhibition @ 10 uM
1,Cc1ccc(N/C=C(\C#N)C(=O)NC(=O)Cc2ccccc2)c(O)c1,-4.75%
2,CCN(CC)CCN1CC(=O)C(c2nc3cc(C)ccc3[nH]2)=C1N,5.29%
3,N#C/C(=C\c1cc2c(cc1Cl)OCO2)c1nc2ccccc2[nH]1,0.76%
4,CN(C)CCN(C(=O)CCc1ccccc1)c1nc2ccc(F)cc2s1,-0.0871%
5,O=C(Nc1cc(-c2cccc(Cl)c2)no1)c1noc2c1CCCCC2,2.09%
6,CCCN1C(=O)CN(C2CCC(C)CC2)C(=O)C1c1ccc(F)cc1 (centres unmarked),-5.8%
7,Fc1ccccc1OCCn1ccnc1,-6.65%
8,COC(=O)c1cc(S(=O)(=O)N2CCC(c3ccccc3)C2)c[nH]1 (centres unmarked),1.09%
9,Oc1ccccc1CN1CCc2ccccc2C1,-1.41%
10,CS(=O)(=O)c1ccc(N2CCN(c3ccccc3)CC2)c(S(=O)(=O)N2CCOCC2)c1,-5.63%
11,c1cncc(CSc2ccc(-c3cccs3)nn2)c1,1.68%
12,c1ccc(-n2ncc3c(N4CCN(c5ccccn5)CC4)ncnc32)cc1,7.5%
13,COc1ccccc1C1C(C#N)=C(N)Oc2c1c(C)nn2-c1ccccc1 (centres unmarked),1.26%
14,CSC1=NSC2=NC(=O)/C(=C\c3ccc(OCC(=O)O)cc3)C(=N)N12,-2.12%
15,CCCCOc1ccc(C(=O)NCc2cn3ccsc3n2)cc1,3.94%
16,COc1ccccc1C(=O)Nc1nnc(S(=O)(=O)N2CCC(C)CC2)s1,-1.72%
17,COCCO/C(O)=C1\C(C)=NC2=C(C(=O)CC(c3ccccc3OC)C2)C1c1cccc(O)c1 (centres unmarked),3.87%
18,COc1cc(C2C(C#N)=C(C)N=C3CC(C)(C)CC(O)=C32)cc(Cl)c1O (centres unmarked),-1.2%
19,CCc1ccc2nc(Cl)c(C3NC(=O)c4ccccc4N3)cc2c1 (centres unmarked),-6.57%
20,O=C(NC1CCCCCC1)c1cc(S(=O)(=O)N2CCCCC2)c[nH]1,-3.47%
21,O=C(NCc1ccco1)c1cccnc1Cl,-0.48%
22,COc1ccccc1C(=O)Nc1nc2nc(C)c(Cl)c(C)n2n1,3.66%
23,CCCC1=C(C(=O)OCC)C(c2ccc(CC)cc2)C(C#N)=C(N)O1 (centres unmarked),-3.79%
24,O=C(Nc1ccc(-c2nc3cc(NC(=O)C(F)(F)F)ccc3[nH]2)cc1)C(F)(F)F,0.912%
25,Cn1cccc1Cc1nnc(SCC(=O)NCc2ccco2)n1C,2.5%

row,SMILES,% Inhibition @ 10 uM
1,CC(C)C[C@H](NC(=O)OCc1ccccc1)C(=O)NC(C#N)CC(C)CC(C)(C)C (some centres unmarked),-6.46%
2,CCN(CC)CCn1c2ccccc2n2c(C(=O)OC)c(C)nc12,2%
3,Clc1ccc(N2CCN(C3CCC(c4ccccc4)CC3)CC2)cc1 (centres unmarked),-2.95%
4,CCOc1ccccc1N1CCN(Cc2c(F)cccc2Cl)CC1,-1.78%
5,COc1ccc(C(=O)Nc2sc3c(c2C(N)=O)CCCC3)c(OC)c1,5.39%
6,CC(C)(C)C1=CC(=O)c2c(ccc(C(C)(C)C)c2O)C1=O,3.72%
7,COc1ccc(-c2cc(C(=O)N3CCCCCC3)no2)cc1,0.723%
8,Cc1ccc(S(=O)(=O)N(CC(=O)Nc2ccccc2)Cc2ccc(Cl)cc2)cc1,-1.36%
9,CCC(C)NS(=O)(=O)c1ccc(OCC(=O)Nc2ccc(F)cc2F)cc1 (centres unmarked),1.17%
10,CSc1ncc(Cl)c(C(=O)Nc2nc3ccc(S(C)(=O)=O)cc3s2)n1,2.89%
11,CCC(C(=O)Nc1nc2nc(C)c(Cl)c(C)n2n1)c1ccccc1 (centres unmarked),0.401%
12,COc1ccccc1C(=O)n1nc(-c2ccco2)nc1NCc1cccs1,-3.24%
13,CN1CCC(N(C)Cc2ccccc2)CC1,-0.828%
14,O=C(NCc1ccc(-n2cccc2)cc1)C1CCCCC1,7.51%
15,CC(C)C(NC(=O)c1ccco1)C(=O)O (centres unmarked),1.7%
16,COC(=O)c1cc(S(=O)(=O)N2CCC(Cc3ccccc3)CC2)c[nH]1,5.94%
17,CCCOc1c(Cl)cc(C(=O)N(Cc2ccc(C)o2)C2CCS(=O)(=O)C2)cc1Cl (centres unmarked),-2.85%
18,O=C(O)CCN1C(=O)C2C3C=CC(C2C1=O)C1C(=O)N(CCC(=O)O)C(=O)C31 (centres unmarked),-3.92%
19,Cc1nn(-c2ccccc2)c(O)c1C(=N)NC(=O)c1ccccc1,-3.02%
20,CCOc1ccc(S(=O)(=O)N2CCN(Cc3ccccc3)CC2)c2cccnc12,4.33%
21,O=C(Cn1ncc2ccc(Cl)cc21)NCCC1=CCCCC1,-8.57%
22,CCOC(=O)c1c(C)oc2c1c(C(c1ccncc1)N1CCCCC1)c(O)c1ccccc12 (centres unmarked),-3.21%
23,COc1ccc(C2C3=C(O)CC(C)(C)CC3=NC(C)=C2C(=O)N2CCOCC2)cc1O (centres unmarked),2.51%
